Tests used:
[1] = system: HCV replicon GT1a; test: Inhibition of HCV replicons, GT1a; assay type: cell-based; conditions: Hepatitis C virus, wild-type replicon
[2] = system: HCV Replicon GT-1b; test: microbe, parasite or virus in culture; conditions: Hepatitis C virus, GT1B, read-out: HCV Replicon Assay EC90 uM
[3] = system: HCV replicon GT1b; test: Inhibition of HCV replicons, GT1b; assay type: cell-based; conditions: Hepatitis C virus, wild-type replicon

| Structure (SMILES) | EC50 [1] [µM] | EC90 [2] [µM] | EC50 [3] [µM] |
| --- | --- | --- | --- |
| CC(C)OC(=O)[C@H](C)NP(=O)(OC[C@H]1O[C@@H](n2ccc(=O)[nH]c2=S)[C@](C)(O)C1O)Oc1ccccc1 (some centres unmarked) [ENUC-01911-2] | 0.0765 | – | – |
| CC(C)OC(=O)[C@H](C)N[P@](=O)(OC[C@H]1O[C@@H](n2ccc(=O)[nH]c2=O)[C@](C)(F)C1O)Oc1ccccc1 (some centres unmarked) [ENUC-02025-1] | – | 0.0803 | – |
| CC(C)OC(=O)[C@H](C)N[P@](=O)(OC[C@H]1O[C@@H](n2ccc(=O)[nH]c2=S)[C@](C)(O)C1O)Oc1ccccc1 (some centres unmarked) [ENUC-02023-1] | 0.0265 | – | 0.0491 |
| CC(C)OC(=O)[C@H](C)N[P@@](=O)(OC[C@H]1O[C@@H](n2ccc(=O)[nH]c2=O)[C@](C)(F)C1O)Oc1ccccc1 (some centres unmarked) [ENUC-02026-1] | – | 0.893 | – |
| CC(C)OC(=O)[C@H](C)NP(=O)(OC[C@H]1O[C@@H](n2ccc(=O)[nH]c2=[Se])[C@](C)(O)C1O)Oc1ccccc1 (some centres unmarked) [ENUC-02058-1] | – | 43.6 | – |
| CC(C)OC(=O)[C@H](C)NP(=O)(OC[C@H]1O[C@@H](n2ccc(=O)[nH]c2=O)[C@](C)(O)C1O)Oc1ccccc1 (some centres unmarked) [ENUC-01982-1] | – | 0.168 | – |
| CC(C)OC(=O)[C@H](C)NP(=O)(OC[C@H]1O[C@@H](n2ccc(=S)[nH]c2=O)[C@](C)(O)C1O)Oc1ccccc1 (some centres unmarked) [ENUC-01920-1] | – | 35.7 | – |
